Laboratory results reported in ChEMBL document CHEMBL4888484, “Replenishing the malaria drug discovery pipeline: Screening and hit evaluation of the MMV Hit Generation Library 1 (HGL1) against asexual blood stage Plasmodium falciparum ,using a nano luciferase reporter read-out” (2022).
The campaign covered roughly 150,000 compounds. About 540 (0.36%) showed an effect of 50% or more. The list shows a part of the results.

System: Plasmodium falciparum
Assay: Primary screen in NF54 nanoGlo assay, in single point, at 2uM, 72h; a lower Z score goes with more inhibition
Assay type: functional, Erythrocyte
Settings: timepoint 72 hour

SMILES	% Inhibition [%]	Z score
CN(C)CCNc1nc(S(=O)(=O)c2ccccc2)c(Cl)s1	3	-0.41
O=C(NCc1ccc(Cn2cccn2)cc1)c1nccnc1-c1nc2ccccc2s1	2	-0.3
c1cc(CNc2ccc3c(c2)OCO3)ccn1	-9	1.7
CCn1cnnc1CNC(=O)N1CC(C)OCC1C (centres undefined)	-4	0.44
CCC(=O)N1C[C@@H]2NC(=O)CN(C)C(=O)c3ccc(C)c(c3)Oc3cccc(c3)CO[C@H]2C1	-3	0.37
O=C(Cn1ccnc1)N1CCN(C(=O)N2CCN(Cc3ccccc3)CC2)CC1	-14	2.78
COc1cc(OC)c(OC)cc1CN1CCC2(CCC(=O)N(C)CC2)CC1	-1	0.09
COCCOc1ccc(Br)cc1S(=O)(=O)Nc1nccn(C)c1=O	-9	1.35
COc1c(F)cc(-c2cc(-c3sc(N)nc3C)nc(N)c2C#N)cc1F	-5	0.89
CC(C)(Cc1nc([C@H]2CCS(=O)(=O)C2)no1)C(F)(F)F	-6	0.83
CC(C)C[C@H](CO)NC(=O)C[C@@H]1c2nc(-c3cccnc3)sc2C[C@@H]2[C@](C)(CO)[C@H](O)CC[C@]21C	6	-1
COc1ccc(C2CC(Cn3cc(C(C)=O)c(=O)[nH]c3=O)ON2C)cc1 (centres undefined)	-5	0.73
Cc1csc([C@@H](C#N)C(=O)c2cnn(CC(C)C)c2C2CC2)n1	4	-0.76
COc1ccc(-n2ncc3c(N4CCN(C(=O)c5ccc(Cl)cc5)CC4)nc(C4CC4)nc32)cc1	-19	2
CCCc1cc(=O)n(CC(=O)Nc2c(C)cccc2C)c(-c2ccc(F)cc2)n1	-22	1.92
CN(C)c1nc(-c2ccc(C(N)=O)c(Cl)c2)n[nH]1	-17	1.81
O=C(CN1CCO[C@H]2CCC[C@H]21)Nc1ccc2c(c1)CCC2	-5	0.57
O=C1NCCCCCCN(Cc2ccncc2)[C@@H]2CN(C(=O)NC3CCCCC3)CC[C@@H]12	-11	1.47
CCNC(=O)O[C@@H]1CC[C@]2(C)C(CC[C@@H](O)[C@H]2CC(=O)NCc2cccs2)[C@]1(C)CO (some centres undefined)	-4	0.6
CN1C(=O)CC(c2nc(CCc3ccccc3)no2)C1c1cccnc1 (centres undefined)	-5	0.42
COCCC[C@H]1CCCCN1C(=O)CN(C)c1ccccc1	-15	1.94

SMILES	% Inhibition [%]	Z score
CC(=O)N1CCC(Oc2ccc(Cl)cc2C(=O)N(C)Cc2csc(C)n2)CC1	7	-0.93
Clc1cccc(-c2nc(N3CCCCCC3)nc3c2COc2ccccc2-3)c1	-7	1.07
CCn1nc(COc2ccccc2)nc1[C@@H]1CCCN1C(N)=O	-10	1.47
O=C(NC1CC=CCC1C(F)(F)F)c1cnnc2ccccc12 (centres undefined)	-2	0.29
Nc1cnc2ccc3nn(-c4ccccc4)nc3c2n1	3	-0.4
Cc1ccc(CNC(=O)c2[nH]c(C)c(S(=O)(=O)N3CCCCC3)c2C)cc1	-12	1.63
Cc1nc2n(n1)CCN(S(=O)(=O)CC1CCC(C3CC3)O1)C2 (centres undefined)	3	-0.51
Cc1nonc1C(=O)NC1(c2ccccc2)COC1	6	-1.1
COc1ccccc1-c1ncc(CN2C[C@H](O)[C@@H](N3CCCC3)C2)cn1	4	-0.84
CN1CCC(Oc2nc3ccccc3cc2C#N)CC1	-3	0.47
CCn1cncc1CN(C)[C@H]1C[C@H](c2cccc(OC)c2)C1	1	-0.08
O=C(CC(c1ccccc1)c1ccccc1)N1CCNC(=O)C12CCCC2	-6	0.91
COc1ccccc1-c1cc2nc(C)cc(N3CCN(CCO)CC3)n2n1	-14	1.98
Cn1cccc(C(=O)N2CCC(c3nnc(C(F)(F)F)o3)CC2)c1=O	-12	1.33
CCC1(CC)CCN(C(=O)[C@]2(C)CCCN2)C1	-16	2.52
Cc1cccc(C(=O)NC[C@](C)(O)c2ccc(F)cc2F)n1	3	-0.45
CS(=O)(=O)CC1(CC(=O)N2CCCCO2)CC1	-29	3.38
O=C(C1=CCCC1)N1CCC2CCCC21 (centres undefined)	-1	0.11
COc1ccccc1N1CCN([C@H]2[C@@H]3OC[C@@H](O3)[C@@H](NCc3ccccn3)[C@@H]2O)CC1	5	-0.78
C[C@@H](c1ccccc1)n1c(=O)c2c(ncn2Cc2ccccc2)n(-c2cccc(Cl)c2)c1=O	-8	0.76
Cc1ccc(NC(=O)[C@]2(Cc3cccnc3)CCCCC(=O)N2)cc1	-4	0.81
